# From the supplement of paper PMC10986608
# The other results are listed elsewhere or left out. Repeats are few or missing, and single values can be far off.
# System: Candida albicans DPL-15
# Assay: growth (OD600) after compound treatment (apparently relative to screen median) (relative growth (fraction; screen median 1.02)); DPL-15 is a caspofungin-resistant clinical isolate; higher = more fungal growth (less antifungal activity)
# Settings: 25 µM; RPMI 1640; 48 h; 30 °C
row,SMILES,growth
1,COC(=O)C1=C2CCCO[C@H]2[C@@H]2[C@@H](C)[C@H](OC)c3ccccc3[C@H]12,0.964
2,C=C(C)[C@]1(O)C[C@@H](C)[C@]2(O)[C@@H]3CCC4(OCCO4)[C@@]34CC(C)=C[C@@]2(O4)[C@H]1OC(=O)Cc1ccccc1,1.12
3,COC(=O)[C@@H]1[C@@H](O)[C@@]2(O)c3c(OC)cc(OC)cc3O[C@@]2(c2ccc(OC)cc2)[C@H]1c1cccc(F)c1,1.45
4,COC(=O)[C@H]1[C@@H](O)[C@@]2(O)c3c(OC)cc(OC)cc3O[C@@]2(c2ccc(OC)cc2)[C@@H]1c1cccc(F)c1,1.12
5,COC(=O)[C@H]1[C@@H](O)[C@@]2(O)c3c(OC)cc(OC)cc3O[C@@]2(c2ccc(OC)cc2)[C@@H]1c1ccccc1,0.995
6,CCCCc1nc2c(c3c1C[C@H](C)OC3)CNCC2,1.6
7,COc1ccc([C@@]23Oc4cc(OC)cc(OC)c4[C@]2(O)C(=O)C[C@H]3c2ccccc2)cc1,0.946
8,CO[C@@]12c3c(C)cc(O)c4c(=O)occ(c34)C(=O)[C@@H]1[C@]13COC(=O)c4c(O)cc(C)c(c41)C(=O)[C@H]2[C@@H]3OC(C)=O,1.03
9,Oc1c(Br)cc(Br)cc1-c1cc(Br)cc(Br)c1O,0.853
10,COc1ccc([C@@]23Oc4cc(OC)cc(OC)c4[C@]2(O)[C@H](O)C[C@H]3c2ccccc2)cc1,1.05
11,COc1ccc([C@@]23Oc4cc(OC)cc(OC)c4[C@]2(O)c2nc(-c4ccccc4Cl)[nH]c(=O)c2[C@H]3c2ccccc2)cc1,1.04
12,COc1ccc([C@@]23Oc4cc(OC)cc(OC)c4[C@]2(O)c2nc(-c4cccc(C)c4)[nH]c(=O)c2[C@H]3c2ccccc2)cc1,1.03
13,CC(=O)C1=C(C)OC2=C(C(=O)CCC2)[C@@]12C(=O)N(C)c1ccccc12,1.06
14,CO[C@@H]1[C@H](O)CC[C@]2(O)CN(CCc3c[nH]c4ccccc34)[C@](C)([C@H](O)CC=C(C)C)[C@@H]12,1.07
15,COC(=O)[C@H]1[C@H](c2ccccc2)[C@@]2(c3ccc(OC)cc3)Oc3cc(OC)cc(OC)c3[C@]1(O)[C@H]2O,0.836
16,COC(=O)[C@@]12Oc3ccc(C4=CCNCC4)c(O)c3C(=O)C1=C(N)C[C@H](C)[C@H]2O,1.07

row,SMILES,growth
1,COc1ccc([C@@]23Oc4cc(OC)cc(OC)c4[C@]2(O)c2nc(-c4ccc(Cl)nc4)[nH]c(=O)c2[C@H]3c2ccccc2)cc1,1.17
2,COC(=O)[C@@H]1[C@@H](O)[C@@]2(O)c3c(OC)cc(OC)cc3O[C@@]2(c2ccc(OC)cc2)[C@H]1c1ccccc1,1.02
3,COC(=O)C1=C2CCO[C@@H]2[C@H]2[C@@H](C)[C@H](OC)c3ccccc3[C@@H]12,1.3
4,COC(=O)[C@@H]1[C@@H](c2ccccc2)[C@]2(c3ccc(Br)cc3)Oc3cc(OC)cc(OC)c3[C@@]1(O)C2(O)O,1.01
5,CCOP(=O)(OCC)O/C(C=C(C)C)=C1/CCCCC1=O,1.21
6,CC(C)=C/C(OP(=O)(Oc1ccccc1)Oc1ccccc1)=C1\CCCCC1=O,0.967
7,COc1ccc([C@@]23Oc4cc(OC)cc(OC)c4[C@]2(O)C2=C(C(=O)N4CCC[C@H]4N2)[C@H]3c2ccccc2)cc1,0.919
8,COC(=O)C1=C(O)c2ccoc2[C@@]2(c3ccccc3)CCC[C@H]1C2,1.05
9,COCC1=N[C@@]2(O)[C@H](C(=O)N(C)OC)[C@@H](c3ccccc3)[C@]3(c4ccc(OC)cc4)Oc4cc(OC)cc(OC)c4[C@]23N1,0.984
10,CCCC[C@]12CCC[C@@H](C1)C(C(=O)OC)=C(O)c1ccoc12,1
11,COc1ccc([C@@]23Oc4cc(OC)cc(OC)c4[C@]2(O)[C@H](O)[C@H](C(=O)N(C)OC)[C@H]3c2ccccc2)cc1,0.986
12,COc1cc(F)cc2c1[C@]1(O)[C@H](O)[C@H](/C(N)=N/O)[C@@H](c3ccccc3)[C@]1(c1ccc(Br)cc1)O2,1.01
13,COc1ccc([C@@]23Oc4cc(OC)cc(OC)c4[C@]2(O)[C@H](O)[C@H](C(=O)O)[C@H]3c2ccccc2)cc1,1.08
14,COc1ccc([C@@]23Oc4cc(OC)cc(OC)c4[C@@]24NC(C)=N[C@@]4(O)[C@H](C(=O)N(C)C)[C@H]3c2ccccc2)cc1,0.954
15,COc1ccc([C@@]23Oc4cc(OC)cc(OC)c4[C@]2(O)c2nc(-c4ccccc4)[nH]c(=O)c2[C@@H]3c2ccccc2)cc1,0.908
16,CONC(=O)[C@H]1[C@@H](O)[C@@]2(O)c3c(OC)cc(OC)cc3O[C@@]2(c2ccc(Br)cc2)[C@@H]1c1ccccc1,0.776
